Experimental data published in US20040002079A1, “Sodium-phosphate cotransporter in lithium therapy for the treatment of mental illness” (priority 1998, published 2004).

Biological target: T1, sodium-phosphate cotransporter (Homo sapiens, UniProt Q8WUM9)
T1 sequence (Q8WUM9 1-679): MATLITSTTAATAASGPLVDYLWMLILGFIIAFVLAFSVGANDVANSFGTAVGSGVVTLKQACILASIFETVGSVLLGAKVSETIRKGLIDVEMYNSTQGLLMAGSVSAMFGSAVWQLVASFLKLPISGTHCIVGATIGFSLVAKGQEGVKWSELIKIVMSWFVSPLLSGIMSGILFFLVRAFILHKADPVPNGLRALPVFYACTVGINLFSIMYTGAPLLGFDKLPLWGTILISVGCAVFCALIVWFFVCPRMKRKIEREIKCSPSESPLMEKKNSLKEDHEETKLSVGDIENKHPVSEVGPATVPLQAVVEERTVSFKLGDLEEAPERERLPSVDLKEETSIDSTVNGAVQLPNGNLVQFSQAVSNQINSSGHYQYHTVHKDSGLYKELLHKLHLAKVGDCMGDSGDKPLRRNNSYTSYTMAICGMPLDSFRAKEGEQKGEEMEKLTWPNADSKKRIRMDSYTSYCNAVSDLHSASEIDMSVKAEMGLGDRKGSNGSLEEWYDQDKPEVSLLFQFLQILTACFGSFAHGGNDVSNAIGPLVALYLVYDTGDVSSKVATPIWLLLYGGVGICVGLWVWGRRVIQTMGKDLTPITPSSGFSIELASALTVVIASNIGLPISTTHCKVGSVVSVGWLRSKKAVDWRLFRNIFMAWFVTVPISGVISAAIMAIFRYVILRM
Assay: Na-dependent 32PO4 influx into erythroleukemic K562 cells
Assay type: cell-based
Set-up: influx into the erythroleukemic line of K562 cells was measured; endogenous in cells; host or cells: K562 erythroleukemic cells

Structure (SMILES) | activation of phosphate influx
[Rb+] [Rb] | no activation
[K+] [K] | no activation
